Reference: PubChem BioAssay AID720709 (National Center for Advancing Translational Sciences (NCATS), 2013)
Out of some 360,000 compounds screened, about 520 (0.14%) were called active. This list was built around the results that the source calls inconclusive (neither active nor inactive); the mix of calls is not that of the screen. The call rests on the fitted dose curve; in most records, active means well fitted inhibition curve with a large enough effect; inconclusive means small, poorly fitted or top-dose-only effect; inactive means no such curve, though single readings can be large or run the other way. Potencies of inconclusive entries are left out as doubtful fits.

The molecules below were run against Rap guanine nucleotide exchange factor 3 (Homo sapiens) (UniProt O95398) (assay: qHTS for Antagonist of cAMP-regulated guanine nucleotide exchange factor 3 (EPAC1): primary screen). Conditions: EPAC1 GEF assay, Rap1b-BODIPY-GDP exchange fluorescence; activity change, negative = inhibition: at 115 µM (top of the series).
Sequence of UniProt O95398 (O95398 whole entry, looked up): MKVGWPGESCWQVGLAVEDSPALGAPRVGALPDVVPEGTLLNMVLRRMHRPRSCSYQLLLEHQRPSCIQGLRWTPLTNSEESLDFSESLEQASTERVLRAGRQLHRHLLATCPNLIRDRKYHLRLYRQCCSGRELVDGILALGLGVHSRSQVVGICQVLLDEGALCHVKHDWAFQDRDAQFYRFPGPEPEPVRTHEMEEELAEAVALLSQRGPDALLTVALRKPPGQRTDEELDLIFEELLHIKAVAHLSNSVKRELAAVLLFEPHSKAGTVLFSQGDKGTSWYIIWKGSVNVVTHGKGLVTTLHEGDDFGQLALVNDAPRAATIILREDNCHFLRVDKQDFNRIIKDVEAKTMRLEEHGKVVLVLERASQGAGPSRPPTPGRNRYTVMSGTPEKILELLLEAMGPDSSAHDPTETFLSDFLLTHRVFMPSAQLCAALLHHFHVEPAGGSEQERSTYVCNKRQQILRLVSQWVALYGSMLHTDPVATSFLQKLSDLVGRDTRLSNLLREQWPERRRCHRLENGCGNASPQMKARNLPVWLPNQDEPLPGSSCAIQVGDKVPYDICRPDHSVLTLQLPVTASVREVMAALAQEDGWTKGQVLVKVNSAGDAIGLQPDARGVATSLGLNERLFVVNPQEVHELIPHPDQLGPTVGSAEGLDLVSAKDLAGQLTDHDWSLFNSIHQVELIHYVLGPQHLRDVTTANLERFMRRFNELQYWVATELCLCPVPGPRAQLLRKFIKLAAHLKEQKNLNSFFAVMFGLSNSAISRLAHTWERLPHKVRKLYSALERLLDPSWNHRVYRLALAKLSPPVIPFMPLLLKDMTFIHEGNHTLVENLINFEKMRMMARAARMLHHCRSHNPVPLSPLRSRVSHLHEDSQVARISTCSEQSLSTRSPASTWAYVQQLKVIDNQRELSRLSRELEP
Further: nearly all actives have a fitted effect of over 50% in size.
Potency means the concentration at half of the fitted maximal effect; tags describe the fitted curve by direction and shape.
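Wherever activity change, negative = inhibition is given: plate controls were vehicle for no effect and positive control for full effect.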

SMILES | Potency | activity change, negative = inhibition
Cn1cnc(C(=O)N2CCN(c3ccccc3)CC2)c1C(=O)N1CCN(c2ccccc2)CC1 | inconclusive [inhibitor, single point] | –
Cc1ccc(S(=O)(=O)N2CCC(=O)N([C@H](COCc3ccc(Cl)cc3)Cc3ccccc3)CC2)cc1 | inconclusive [inhibitor, single point] | –
O=C(OC(c1ccccc1)c1nccc2ccccc12)c1cccc([N+](=O)[O-])c1 (stereo unspecified) | – | inactive: -7.13%
COc1cccc(-c2ccc(NC(=O)C3CCCN(Cc4cnc(C)n4C)C3)cc2)c1 (stereo unspecified) | – | inactive: -5.48%
Cc1ccnc(NCc2c(O)ccc3ccccc23)c1 | inconclusive [inhibitor, single point] | –
Cn1c(=O)c2c(nc(N3CCOCC3)n2CCSc2ncccn2)n(C)c1=O | inconclusive [inhibitor, single point] | –
COc1ccc(NC(=O)c2cc(S(=O)(=O)NCC3COc4ccccc4O3)ccc2F)cc1 (stereo unspecified) | inconclusive [inhibitor, partial curve] | –
COc1ccccc1-c1nnc(NC(=O)C(C)Sc2nncn2C)s1 (stereo unspecified) | – | inactive: -7.23%
O=C(N/N=C1/CC2CCC1C2)c1cc2ccccc2cc1O (stereo unspecified) | inconclusive [inhibitor, partial curve] | –
COc1ccc(N2CCN(C(=O)NCc3cccc(OC)c3)CC2)cc1 | inconclusive [inhibitor, full curve, poor fit] | –
O=C(NCC(c1cccs1)N1CCOCC1)c1ccc(Cl)c(S(=O)(=O)N2CCOCC2)c1 (stereo unspecified) | inconclusive [inhibitor, single point] | –
CC(/C=N\NC(=O)c1cc(C)oc1C)=C\c1ccccc1 | – | inactive: -6.77%
COc1cccc(N2CCN(S(=O)(=O)c3c(C)[nH]c(C)c3C(=O)N3CCCC3)CC2)c1 | inconclusive [inhibitor, full curve, poor fit] | –
Cc1cc(C)cc(NS(=O)(=O)c2cccs2)c1 | inconclusive [inhibitor, partial curve] | –
Cc1nn(CC(=O)NCCCN2CCN(Cc3ccccc3)CC2)c(=O)c2cc(-c3ccccc3)nn12 | – | inactive: 2.82%
C=CCN(CC=C)C(=S)Nc1ccc2nsnc2c1 | – | inactive: -3.42%
Cc1nc2cc(C(F)(F)F)ccc2n1C1CCN(CC(=O)NC(C)(C)C)CC1 | inconclusive [inhibitor, full curve, poor fit] | –
Cc1cc(OC(C)C(=O)NCCCn2ccnc2)c2c(C)cc(=O)oc2c1 (stereo unspecified) | – | inactive: 9.23%
O=C(c1cccc(F)c1)N1CCC(N2CCCCCC2)CC1 | inconclusive [inhibitor, single point] | –
O=c1c(C=NCCCO)c(-c2ccccc2)[nH]n1-c1nc2ccccc2s1 | inconclusive [inhibitor, full curve, poor fit] | –
COc1ccc(/C=C(\CC(=O)O)c2nc3ccccc3o2)cc1 | – | inactive: -3.87%
CC1(C)Cc2c(C#N)c(N3CCN(C(=O)c4ccccc4Cl)CC3)nc(-c3ccco3)c2CS1 | inconclusive [inhibitor, full curve] | –
Cc1cccn2c(=O)c3cc(C#N)c(=NC(=O)c4cccs4)n(CC(C)C)c3nc12 | inconclusive [inhibitor, single point] | –
CCC(C)Oc1nc(C)cc(C)c1S(=O)(=O)c1ccccc1C (stereo unspecified) | – | inactive: -3.63%

SMILES | Potency | activity change, negative = inhibition
Cc1cc(C(=O)Nc2ccccc2C(=O)O)ccc1NC(=O)COc1cccc([N+](=O)[O-])c1 | inconclusive [inhibitor, single point] | –
Cc1ccc(C)c(NC(=O)C(=O)NCc2ccccn2)c1 | inconclusive [inhibitor, partial curve, poor fit] | –
CCCCNC(=O)c1ccc2nc(-c3ccco3)c(-c3ccco3)nc2c1 | inconclusive [inhibitor, full curve] | –
COc1ccc(CCN=Cc2ccccc2O)cc1OC | – | inactive: 22.6%
OCC1(Cc2ccc(Cl)cc2)CCN(CCCc2ccccc2)CC1 | – | inactive: -4.35%
Cc1cc(C)c(C(CC(=O)c2cccs2)C(C#N)C#N)c(C)c1 (stereo unspecified) | inconclusive [inhibitor, partial curve] | –
CN1CCN(c2ncnc3c2ncn3[C@H]2CN(Cc3ccncc3)C[C@@H](CO)O2)CC1 | inconclusive [inhibitor, single point] | –
CC1(C(=O)NCCCN2CCCC2=O)CCN1CCc1ccccc1 (stereo unspecified) | – | inactive: -0.118%
O=C(CN1C(=O)C2C3C=CC(C3)C2C1=O)Nc1ccc2c(c1)OCCO2 (stereo unspecified) | inconclusive [inhibitor, partial curve] | –
CCN1C(=O)c2cccc3c(S(=O)(=O)NC(Cc4ccccc4)C(=O)O)ccc1c23 (stereo unspecified) | inconclusive [inhibitor, single point] | –
CCC(=O)N1c2ccc(S(=O)(=O)NCCc3ccc(C)cc3)cc2CC1C (stereo unspecified) | inconclusive [inhibitor, single point] | –
O=C(Nc1ccccc1)C1=C(O)CC(c2ccc(Cl)cc2)N2CCN=C12 (stereo unspecified) | inconclusive [inhibitor, partial curve] | –
O=C(CN1C(=O)C2CC=CCC2C1=O)Nc1nnc(SCc2ccc(F)cc2)s1 (stereo unspecified) | inconclusive [inhibitor, partial curve] | –
CC1(C(=O)Nc2ccc3c(c2)OCCO3)CSCC(=O)N1CCCn1ccnc1 (stereo unspecified) | – | inactive: 6.38%
COc1ccccc1CNc1nc2cc(-c3ccsc3)sc2c(=O)n1C | inconclusive [inhibitor, partial curve] | –
COc1ccccc1-c1cnc(C(O)c2ccc(C)cc2C)[nH]1 (stereo unspecified) | inconclusive [inhibitor, single point] | –
CCOC(=O)NC1(NC(C)C)Oc2ccccc2O1 | – | inactive: -18.2%
CC(C)C(=O)NNc1nc2ccccc2s1 | – | inactive: -0.641%
CC(=O)C1=C(C)NC(SCC(=O)c2ccc(Cl)cc2)=C(C#N)C1c1ccco1 (stereo unspecified) | – | inactive: -10.2%
Cc1nc2ccc(S(=O)(=O)Nc3ccccc3C)cc2s1 | – | inactive: 0.619%
O=C(CN(Cc1ccc(Br)cc1)S(=O)(=O)c1ccccc1)NCc1ccccn1 | inconclusive [inhibitor, single point] | –
O=C(/C=C/c1ccc(-c2ccc(F)cc2)o1)N1CCCC1 | – | inactive: -12.5%
Cc1[nH][nH]c(=O)c1C(c1ccc(O)c(Br)c1)c1c(C)[nH][nH]c1=O | inconclusive [inhibitor, single point] | –
Cc1ccc(C(=O)NCc2nnc3c(C(F)(F)F)cc(Cl)cn23)o1 | – | inactive: -0.931%

SMILES | Potency | activity change, negative = inhibition
COCCSc1nnc(NC(=O)c2ccc(NC(=O)C(C)C)cc2)s1 | inconclusive [inhibitor, single point] | –
CCCn1c(SCC(=O)c2[nH]c(C)c(C(C)=O)c2C)n[nH]c1=O | inconclusive [inhibitor, single point] | –
CCOc1cc(CN2CCCC(C(=O)c3cccc(C(F)(F)F)c3)C2)ccc1O (stereo unspecified) | inconclusive [inhibitor, single point] | –
CC(NCC1COc2ccccc2O1)C1COc2ccccc2O1 (stereo unspecified) | inconclusive [inhibitor, full curve] | –
COc1ccc(S(=O)(=O)/N=C2/NC(=O)/C(=C\c3cc(OC)c(OC)cc3[N+](=O)[O-])S2)cc1 | inconclusive [inhibitor, single point] | –
CCOc1ccc(/C=N/NC(=O)c2ccoc2C)cc1OC | – | inactive: -17.1%
COc1cccc([C@@H]2CC=C(C(=O)O)[C@H](c3ccc(Cl)cc3)N2S(=O)(=O)c2ccc(C)cc2)c1 | inconclusive [inhibitor, single point] | –
COc1cc(NC(=O)CCN2CCN(C/C=C/c3ccccc3)CC2)cc(OC)c1 | – | inactive: -11.4%
CCCn1nc(C(=O)Nc2ccc3c(c2)OCO3)c2ccccc2c1=O | inconclusive [inhibitor, partial curve] | –
COc1ccc2nc3ccccc3nc2c1NC(=O)c1ccc(Cl)cc1Cl | – | inactive: 20.9%
O=C(CSc1nnc(-c2cccnc2)s1)Nc1ccc(C(=O)O)cc1 | inconclusive [inhibitor, full curve, poor fit] | –
COC(=O)c1ccc(CSCc2ccc(C(=O)OC)o2)o1 | inconclusive [inhibitor, single point] | –
CCN(CC)C(=O)C(=O)N/N=C/c1ccc(F)cc1 | inconclusive [inhibitor, full curve, poor fit] | –
CCOc1ccc(Oc2c(/C=N/NC(C)=O)c(C)nn2-c2ccccc2)cc1 | inconclusive [inhibitor, partial curve] | –
O=C(N/N=C/c1c[nH]c2ccccc12)c1ccc(O)c(O)c1 | inconclusive [inhibitor, full curve] | –
O=C(Nc1c(-c2ccc(Cl)cc2)[nH][nH]c1=O)c1ccccn1 | inconclusive [inhibitor, full curve, poor fit] | –
CCOC(=O)c1cccc(NC(=O)c2cnccn2)c1 | – | inactive: -7.73%
CC1CCC(N2CCN(S(C)(=O)=O)CC2)CC1 (stereo unspecified) | – | inactive: -12.5%
O=C1C(NS(=O)(=O)c2ccccc2)=C(N2CCN(c3ccc(F)cc3)CC2)C(=O)c2ccccc21 | – | inconclusive: -30.6% [inhibitor]
CCOC(=O)CSc1nnc(CNc2ccc(Cl)cc2)n1-c1ccccc1 | inconclusive [inhibitor, partial curve] | –
CCN1CCN(c2ccc(NC(=O)c3ccc([N+](=O)[O-])o3)cc2Cl)CC1 | – | inactive: -22.4%
COc1ccc(OC)c(/C=N\NC(=O)c2cc3c(ccc4ccccc43)o2)c1 | – | inactive: 22.1%
Cc1ccc(S(=O)(=O)N2[C@@H](c3ccc(Cl)cc3)C(C(=O)O)=C[C@H]2C(C)(C)C)cc1 | inconclusive [inhibitor, single point] | –
